Test results: the supplement of paper PMC6531468
The other results are listed elsewhere or left out. Values come from read counts of a selection and are noisy. Each score is taken over the longer molecules that contain the sequence shown.

What was measured:
Assay in all cases: 6-mer SELEX enrichment z-score vs GST control; IMP3 is the RNA-binding protein IGF2BP3; higher = more enriched by binding
[1] = system: IMP3 KH1-4; details: construct: KH1-4 (164-579); SELEX round: R4
Procedure: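 SELEX-seq with GST-tagged IMP3 KH1-4 (Pro164-Lys579) and an N40 RNA pool, round 4. 6-mer z-score of sequence-tag enrichment normalised to the corresponding GST SELEX round; RNA k-mers written as DNA (T for U).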

[2] = system: IMP3 RRM1-2; details: construct: RRM1-2 (1-163); SELEX round: R2
IMP3 RRM1-2, sequence (chain, as listed by the source): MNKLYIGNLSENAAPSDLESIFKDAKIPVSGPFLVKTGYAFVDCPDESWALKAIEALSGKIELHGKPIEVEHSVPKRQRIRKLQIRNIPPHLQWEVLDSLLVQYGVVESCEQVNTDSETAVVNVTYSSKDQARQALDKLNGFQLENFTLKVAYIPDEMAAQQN
Procedure: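 SELEX-seq with GST-tagged IMP3 RRM1-2 (Met1-Asn163) and an N40 RNA pool, round 2. 6-mer enrichment z-score normalised to GST SELEX. RNA written as DNA (T = U).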

[3] = biological target: IMP3 full-length (UniProt O00425); details: construct: FL IMP3 (1-579); SELEX round: R4
UniProt O00425, sequence (O00425 whole entry): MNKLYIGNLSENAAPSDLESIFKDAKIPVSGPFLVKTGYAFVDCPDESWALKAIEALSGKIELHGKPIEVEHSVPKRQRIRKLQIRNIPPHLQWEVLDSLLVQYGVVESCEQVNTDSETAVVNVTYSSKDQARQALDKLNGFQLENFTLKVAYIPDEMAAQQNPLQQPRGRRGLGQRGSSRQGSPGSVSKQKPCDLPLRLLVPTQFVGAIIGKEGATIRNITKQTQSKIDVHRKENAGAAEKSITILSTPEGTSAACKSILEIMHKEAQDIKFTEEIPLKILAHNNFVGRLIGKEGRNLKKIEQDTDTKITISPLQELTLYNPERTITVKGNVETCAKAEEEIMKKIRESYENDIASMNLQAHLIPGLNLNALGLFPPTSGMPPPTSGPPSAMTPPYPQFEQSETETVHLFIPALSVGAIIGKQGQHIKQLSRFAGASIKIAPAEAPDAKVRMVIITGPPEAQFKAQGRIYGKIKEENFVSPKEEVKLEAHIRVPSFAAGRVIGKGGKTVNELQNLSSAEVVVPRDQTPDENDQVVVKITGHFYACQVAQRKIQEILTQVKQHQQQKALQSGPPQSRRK
Procedure: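 SELEX-seq with GST-tagged full-length IMP3 and an N40 RNA pool, round 4. Each 6-mer is scored as an enrichment z-score of sequence tags containing it, normalised to the matching GST SELEX round. RNA written as DNA (T = U).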

[4] = system: IMP3 KH1-2; details: construct: KH1-2 (164-376); SELEX round: R4
IMP3 KH1-2, sequence (chain, as listed by the source): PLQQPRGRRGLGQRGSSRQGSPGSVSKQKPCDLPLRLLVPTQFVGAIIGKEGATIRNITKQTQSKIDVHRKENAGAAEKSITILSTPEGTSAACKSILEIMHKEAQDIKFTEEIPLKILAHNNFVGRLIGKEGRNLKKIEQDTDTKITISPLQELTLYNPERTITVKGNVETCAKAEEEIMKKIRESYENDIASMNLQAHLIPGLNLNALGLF
Procedure: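 SELEX-seq with GST-tagged IMP3 KH1-2 (Pro164-Phe376) and an N40 RNA pool, round 4 (stringent 300/600 mM KCl washes). 6-mer z-score of sequence-tag enrichment normalised to the corresponding GST SELEX round; RNA k-mers written as DNA (T for U).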

[5] = system: IMP3 KH3-4; details: construct: KH3-4 (377-579); SELEX round: R4
IMP3 KH3-4, sequence (chain, as listed by the source): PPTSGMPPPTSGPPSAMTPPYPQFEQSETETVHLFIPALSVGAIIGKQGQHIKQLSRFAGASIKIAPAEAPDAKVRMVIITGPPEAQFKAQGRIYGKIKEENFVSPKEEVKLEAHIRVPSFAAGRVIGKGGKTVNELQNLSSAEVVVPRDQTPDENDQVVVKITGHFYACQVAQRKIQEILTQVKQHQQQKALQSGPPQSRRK
Procedure: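 SELEX-seq with GST-tagged IMP3 KH3-4 (Pro377-Lys579) and an N40 RNA pool, round 4. 6-mer z-score of sequence-tag enrichment normalised to the corresponding GST SELEX round; RNA k-mers written as DNA (T for U).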

IMP3 KH1-4, sequence (chain, as listed by the source): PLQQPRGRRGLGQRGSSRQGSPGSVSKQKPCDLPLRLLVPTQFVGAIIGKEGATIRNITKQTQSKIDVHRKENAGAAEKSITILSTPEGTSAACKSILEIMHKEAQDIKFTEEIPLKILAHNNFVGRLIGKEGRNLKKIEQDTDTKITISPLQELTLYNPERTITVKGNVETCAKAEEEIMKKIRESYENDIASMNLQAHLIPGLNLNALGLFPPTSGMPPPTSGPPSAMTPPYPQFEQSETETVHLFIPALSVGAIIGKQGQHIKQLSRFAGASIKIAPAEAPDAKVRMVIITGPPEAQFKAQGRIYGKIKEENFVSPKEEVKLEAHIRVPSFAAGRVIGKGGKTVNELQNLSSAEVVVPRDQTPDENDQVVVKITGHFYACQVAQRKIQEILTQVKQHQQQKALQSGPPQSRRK

| Sequence | 6-mer SELEX enrichment z-score [1] | 6-mer SELEX enrichment z-score [2] | 6-mer SELEX enrichment z-score [3] | 6-mer SELEX enrichment z-score [4] | 6-mer SELEX enrichment z-score [5] |
| --- | --- | --- | --- | --- | --- |
| CTGATG | -0.034 | -0.312 | -0.469 | -0.044 | -0.039 |
| ACGAAG | -0.717 | -1.41 | -0.818 | -0.786 | -0.546 |
| CGGGTC | -0.477 | 0.026 | 0.366 | -0.277 | -0.292 |
| CCAAAC | -2.51 | -0.74 | -2.04 | -2.35 | -3.19 |
| GCGTCG | -0.369 | 0.513 | 0.573 | -0.223 | -0.128 |
| GATACT | 0.007 | -0.301 | -0.278 | -0.015 | 0.141 |
| CAAATC | -0.259 | 0.882 | 0.396 | -0.164 | -0.647 |
| TTTATG | 0.801 | 0.194 | 0.118 | 0.621 | 1.21 |
| TGCAGA | 0.332 | -0.011 | 0.27 | 0.306 | 0.252 |
| GAGGAA | 0.829 | -1.01 | -0.198 | 0.551 | 0.825 |
| TACGGA | 0.32 | -0.523 | -0.144 | 0.092 | 0.382 |
| TTCCAA | -0.248 | -0.001 | -0.593 | -0.249 | -0.436 |
| TGGTGA | 0.118 | 0.006 | -0.067 | 0.058 | 0.232 |
| GGGTAA | -0.086 | -0.116 | -0.047 | 0.016 | 0.287 |
| ACTGTG | 0.412 | -0.273 | -0.123 | 0.215 | 0.195 |
| CGGTTG | -0.172 | 0.251 | 0.058 | -0.086 | -0.044 |
| ACCGTC | -0.516 | -0.287 | 0.17 | -0.536 | -0.954 |
| CGACCA | -0.821 | 0.188 | -0.48 | -0.75 | -1.35 |
| TCGGCC | 2.29 | 0.305 | 2.69 | 1.84 | 1.7 |
| GCAAAT | 0.341 | -0.12 | 0.181 | 0.297 | 0.583 |

| Sequence | 6-mer SELEX enrichment z-score [1] | 6-mer SELEX enrichment z-score [2] | 6-mer SELEX enrichment z-score [3] | 6-mer SELEX enrichment z-score [4] | 6-mer SELEX enrichment z-score [5] |
| --- | --- | --- | --- | --- | --- |
| TCGCTC | -0.015 | 0.404 | 0.303 | 0.071 | -0.091 |
| CTTAAC | 0.131 | -0.356 | -0.606 | 0.148 | 0.139 |
| AGAGGT | 0.301 | -0.136 | 0.265 | 0.225 | 0.448 |
| TTGATG | 0.442 | -0.111 | -0.192 | 0.193 | 0.599 |
| GACTCT | -0.477 | -0.226 | -0.401 | -0.41 | -0.442 |
| TCATCG | 0.252 | 0.802 | 1.13 | 0.166 | -0.013 |
| GATTCC | 0.195 | -0.507 | -0.413 | 0.053 | -0.114 |
| GTACAA | -0.242 | -0.152 | 0.157 | -0.252 | -0.292 |
| CATTTT | 0.954 | 0.77 | 0.878 | 1.09 | 1.15 |
| GATAGT | 0.197 | -0.111 | -0.073 | 0.074 | 0.345 |
| CCTTAT | 0.769 | 0.032 | -0.122 | 0.564 | 0.611 |
| ATGCCT | -0.487 | -0.219 | -0.567 | -0.416 | -0.528 |
| GTGAAT | 0.505 | -0.486 | -0.329 | 0.195 | 0.673 |
| AGAGCC | -1.44 | -0.896 | -0.503 | -1.27 | -1.39 |
| CGCTTT | 0.311 | 0.212 | 0.105 | 0.423 | 0.34 |
| CTAGCT | -0.197 | 0.116 | -0.149 | -0.163 | -0.114 |
| TAGGTG | 0.176 | 0.302 | 0.12 | 0.202 | 0.396 |
| CTGCTA | 0.283 | 0.036 | -0.066 | 0.345 | 0.194 |
| CCGGGC | -1.69 | -0.315 | 0.301 | -1.38 | -1.39 |
| CGATCC | -1.01 | -0.602 | -0.653 | -0.939 | -1.29 |

| Sequence | 6-mer SELEX enrichment z-score [1] | 6-mer SELEX enrichment z-score [2] | 6-mer SELEX enrichment z-score [3] | 6-mer SELEX enrichment z-score [4] | 6-mer SELEX enrichment z-score [5] |
| --- | --- | --- | --- | --- | --- |
| GCTCTC | -0.254 | 0.479 | 0.285 | -0.116 | -0.21 |
| ATAATC | 1.14 | 0.23 | 0.458 | 1.16 | 1.29 |
| GCTAAA | -0.32 | -0.887 | -0.793 | -0.364 | 0.003 |
| CTTGTA | -0.093 | 0.075 | -0.248 | -0.163 | -0.051 |
| CATATA | 2.55 | 1.15 | 1.35 | 2.43 | 2.89 |
| GTTGAG | -0.522 | 0.034 | -0.271 | -0.473 | -0.314 |
| GGCGGC | 0.981 | 0.359 | 1.77 | 0.981 | 0.959 |
| CCCCTT | 0.296 | -0.32 | -0.456 | 0.32 | -0.295 |
| TCGTCC | -0.151 | 0.107 | 0.133 | -0.272 | -0.41 |
| AGATCT | -0.024 | -0.046 | -0.096 | -0.042 | 0.066 |
| GCCGGT | -0.144 | 0 | 0.209 | -0.088 | -0.099 |
| TACTCC | -0.698 | -0.114 | -0.773 | -0.606 | -0.886 |
| GTGACT | -0.246 | -0.25 | -0.367 | -0.28 | -0.163 |
| ACGATG | -0.023 | -0.881 | -0.581 | -0.263 | 0.025 |
| GTATGC | -0.082 | 0.081 | -0.115 | -0.162 | -0.065 |
| TTTACT | 0.796 | 0.286 | 0.043 | 0.82 | 1.05 |
| TGGCGG | 0.521 | 0.247 | 0.77 | 0.567 | 0.665 |
| CCATAG | 0.178 | 0.263 | 0.284 | 0.209 | -0.018 |
| CAGAAA | -0.107 | -0.597 | -0.362 | 0.103 | 0.239 |
| ACACGG | 1.1 | 0.432 | 1.9 | 0.68 | 0.638 |
